Data from paper PMC4336329 (PLoS ONE, 2015).
Out of some 310,000 compounds screened, about 14,000 (4.5%) showed an effect of 50% or more. The effect is printed as a negative number. Some of the results follow.

Target: human ether-à-go-go-related gene (hERG) potassium channel (human, UniProt Q12809)
Assay: primary screen, population patch clamp on CHO cells stably expressing hERG
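Also: peak tail current of the secondary pulse compared with the same well before compound.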

Sequence of human ether-à-go-go-related gene (hERG) potassium channel (Q12809 whole entry, looked up): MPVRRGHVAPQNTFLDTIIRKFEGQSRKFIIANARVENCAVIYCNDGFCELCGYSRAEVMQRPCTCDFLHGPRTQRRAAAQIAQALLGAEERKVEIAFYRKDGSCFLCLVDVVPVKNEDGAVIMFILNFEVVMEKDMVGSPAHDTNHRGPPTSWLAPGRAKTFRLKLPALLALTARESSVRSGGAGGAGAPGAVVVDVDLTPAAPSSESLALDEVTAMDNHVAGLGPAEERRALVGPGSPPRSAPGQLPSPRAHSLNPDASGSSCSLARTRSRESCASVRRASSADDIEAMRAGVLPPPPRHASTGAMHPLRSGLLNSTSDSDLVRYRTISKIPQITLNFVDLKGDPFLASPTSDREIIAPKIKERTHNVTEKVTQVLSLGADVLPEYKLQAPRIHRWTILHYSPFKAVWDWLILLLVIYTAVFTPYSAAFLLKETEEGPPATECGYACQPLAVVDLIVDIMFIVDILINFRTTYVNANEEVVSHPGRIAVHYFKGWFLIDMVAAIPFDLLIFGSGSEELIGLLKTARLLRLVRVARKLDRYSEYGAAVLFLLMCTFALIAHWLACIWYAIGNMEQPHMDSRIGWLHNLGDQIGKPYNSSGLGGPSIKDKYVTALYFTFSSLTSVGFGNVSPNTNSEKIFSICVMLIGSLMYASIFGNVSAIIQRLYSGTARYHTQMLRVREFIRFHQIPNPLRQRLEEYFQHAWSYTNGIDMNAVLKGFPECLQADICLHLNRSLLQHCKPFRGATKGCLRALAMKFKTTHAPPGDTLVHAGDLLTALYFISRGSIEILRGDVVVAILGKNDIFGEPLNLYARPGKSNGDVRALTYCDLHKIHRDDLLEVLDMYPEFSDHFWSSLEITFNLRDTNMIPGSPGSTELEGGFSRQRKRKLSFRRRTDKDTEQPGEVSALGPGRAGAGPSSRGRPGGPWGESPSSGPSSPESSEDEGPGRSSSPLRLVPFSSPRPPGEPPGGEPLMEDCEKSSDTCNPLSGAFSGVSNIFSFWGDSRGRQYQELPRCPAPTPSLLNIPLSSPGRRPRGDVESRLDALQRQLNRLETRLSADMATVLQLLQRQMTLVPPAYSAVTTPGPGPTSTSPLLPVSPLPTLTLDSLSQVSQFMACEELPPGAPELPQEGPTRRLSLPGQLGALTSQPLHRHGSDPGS

| Structure (SMILES) | hERG current change (%, negative = inhibition) at 10uM [%] |
| --- | --- |
| CCCCCC1CC(=O)N(Cc2ccccc2)C(=O)N1 (stereo not drawn) | -21.7 |
| N#C/C(=C\c1ccccc1)C(=O)Nc1ccccn1 | 12.7 |
| CCOc1cc(S(=O)(=O)Nc2ccccn2)ccc1F | 5.69 |
| CN1CCN(c2ccc(C(=O)c3cn(-c4ccc(F)c(Cl)c4)nn3)cc2)CC1 | 17.7 |
| CN(C)c1oc(-c2ccccc2F)nc1C#N | 1.1 |
| CCOc1cccc2sc(N(CCCN(C)C)C(=O)c3ccc(S(=O)(=O)N4CCc5ccccc5C4)cc3)nc12.Cl | 13.7 |
| Cc1cccc(C)c1OCC(=O)Nc1c(C)nn(C)c1C | 22.8 |
| Cc1cc(/C=C(\C#N)C(=O)OCC(=O)NC(=O)NC(C)(C)C)c(C)n1CCC(C)C | 5.62 |
| CCCCCCc1nnc(NC(=O)c2ccco2)s1 | 0.398 |
| CN(C)C(=O)N1CCC(C(=O)NCc2ccc(F)cc2)CC1 | 5.64 |
| COC(=O)c1ccc(C2/C(=C(/O)c3ccc4c(c3)CC(C)O4)C(=O)C(=O)N2CCN2CCOCC2)cc1 (stereo not drawn) | 5.74 |
| Nc1c(N(CCC2=CCCCC2)C(=O)COc2ccc(F)cc2)c(=O)[nH]c(=O)n1Cc1ccccc1 | -6.12 |
| COC(=O)c1[nH]c(C)c(/C(O)=C2\C(=O)C(=O)N(CCCN3CCOCC3)C2c2ccccn2)c1C (stereo not drawn) | 2.5 |
| CC(C)CCn1nnnc1C(C(C)C)N1CCC(C(N)=O)CC1 (stereo not drawn) | 0.86 |
| COc1ccc(C)cc1-n1nnnc1SCC(=O)c1ccc2c(c1)OCCO2 | 4.19 |
| Cc1ccccc1NC(=O)Cn1c(C)nc2ccc(NC(=O)C3CC3)cc2c1=O | 2.37 |
| Cc1ccc(-c2n[nH]c(=S)n2/N=C/c2ccc(C)s2)cc1 | 20 |
| O=C(COc1ccc2c(-c3ccccc3)cc(=O)oc2c1)Nc1ccc(CN2CCOCC2)cc1 | 13.3 |
| COc1ccc(N(CC(=O)Nc2ccc(F)cc2)S(=O)(=O)c2ccccc2[N+](=O)[O-])c(OC)c1 | -12.2 |
| O=C(CSc1nnc(-c2ccccc2Br)o1)N1CCc2ccccc2C1 | -19.9 |
| Nc1nnc(CC(=O)N/N=C/c2ccc(-c3ccccc3)o2)s1 | -11.4 |

| Structure (SMILES) | hERG current change (%, negative = inhibition) at 10uM [%] |
| --- | --- |
| COC(=O)Cc1ccc(NC(=S)NCCCO)cc1 | -4 |
| O=C(CN1CCCCCC1)N/N=C/c1cccc(Cl)c1Cl | -38.5 |
| CCOc1cc(C(=O)N2CCC(CC3CC(c4ccccc4)=NO3)(C(=O)NCc3ccc(OC)cc3)CC2)cc(OCC)c1OCC (stereo not drawn) | -8.88 |
| COCCNC(=S)N1CCN(C(=O)C(=O)Nc2ccc(C(=O)OC)cc2)CC1 | -11.4 |
| CC1(C)CC(NC(=O)C(F)(F)F)CC(C)(C)N1OC(=O)c1ccco1 | 1.13 |
| COc1ccc(-n2c(O)c(C=NCCN3CCN(C(C)=O)CC3)c(=O)[nH]c2=S)cc1 | 20.4 |
| COc1cc(CNn2nnnc2N)ccc1OCC(=O)NC(C)(C)C | 4 |
| Cc1ccccc1NC(=O)CCC(=O)N/N=C/c1cc([N+](=O)[O-])ccc1O | -17.5 |
| CCOc1cccc2cc(C(N)=O)c(=NCc3ccccc3)oc12 | -8.35 |
| O=C(CCCn1cc([N+](=O)[O-])cn1)NC1CCCCCC1 | -3.97 |
| CCN(Cc1ccccc1)S(=O)(=O)c1csc(C(N)=O)c1 | -15.6 |
| CC(C)CC1NC(=O)N(Cc2nc3ccccc3s2)C1=O (stereo not drawn) | -32.5 |
| O=C(NCc1ccco1)c1ccc(Cn2c(=O)c3ccccc3n(Cc3cccc(F)c3)c2=O)cc1 | 8.71 |
| COc1cccc(NC(=O)CN(C)C(=O)c2cc(-c3ccccc3)nc3ccccc23)c1 | 12.7 |
| Cc1cc(N/C(=N\S(=O)(=O)c2ccc(Cl)cc2)c2ccc(F)cc2)no1 | -25.5 |
| COc1cc(SC)ccc1C(=O)NCCN1CCOCC1 | 7.73 |
| Cc1ccc2nc(Nc3ccccc3O)nc(-c3ccccc3)c2c1 | 14.3 |
| CCOc1ncccc1C(=O)NCc1ccccc1 | 9.58 |
| O=c1sc(Nc2ccccc2)nc2ccccc12 | 23.5 |
| CCOC(=O)C(Oc1ccc2c(-c3ccccc3)cc(=O)oc2c1)c1ccccc1 (stereo not drawn) | -32.6 |
| Cc1cc(C)c(NC(=S)N(CCc2ccncc2)C(C)C)c(C)c1 | -8.82 |
